# Certain results were filed several times, with different values. This is not the full list of results. The source may hold further records. The values listed for one entry are repeated measurements (runs, samples, wells, individuals or studies). A tag in brackets gives the origin of a value. A, B and so on number the origins entry by entry.
# Molecular target: Protein GrpE (Escherichia coli (strain K12)) (UniProt P09372)
# Assay: inhibition of DnaK/DnaJ/GrpE luciferase refolding – biochemical, luminescence, E. coli K12, dose response (AID 1462)
# Conditions: DnaK/DnaJ/GrpE denatured luciferase refolding
# UniProt P09372, sequence (P09372 whole entry, looked up): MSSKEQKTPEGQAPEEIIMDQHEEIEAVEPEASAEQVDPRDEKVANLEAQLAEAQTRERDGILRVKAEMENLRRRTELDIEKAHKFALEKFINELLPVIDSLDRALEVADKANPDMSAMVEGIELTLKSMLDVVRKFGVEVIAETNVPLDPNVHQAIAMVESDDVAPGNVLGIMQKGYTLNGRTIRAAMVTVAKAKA
smiles,measurement,value
[N-]=[N+]=Nc1ccc(C(=O)CSC[C@H](NC(=O)CC[C@H](N)C(=O)O)C(=O)NCC(=O)O)cc1,IC50,1.62 µM [sample A] and inactive [sample B]

# Source: PubChem BioAssay AID1462 (Emory University Molecular Libraries Screening Center, 2008)
